In article PMC4049591:
Results are given in words; binding and its absence hold for the method and conditions named. Binding seen in cells or lysates may run through a third protein. Some binding calls cover weakened binding; strength is not graded here. Sequences can lack the tags named with a protein.

The chains behind the UniProt entries cited, without tags or fusion partners. Where a name states a change or a piece, a line headed by the entry shows the natural chain unless it says otherwise. A line that says so, or that is headed by a name, gives the form on record, which may keep a tag or linker.
Non-glycosylated human sonic hedgehog mutant N278A with HA tag (N278A-HA) (Q15465, form named): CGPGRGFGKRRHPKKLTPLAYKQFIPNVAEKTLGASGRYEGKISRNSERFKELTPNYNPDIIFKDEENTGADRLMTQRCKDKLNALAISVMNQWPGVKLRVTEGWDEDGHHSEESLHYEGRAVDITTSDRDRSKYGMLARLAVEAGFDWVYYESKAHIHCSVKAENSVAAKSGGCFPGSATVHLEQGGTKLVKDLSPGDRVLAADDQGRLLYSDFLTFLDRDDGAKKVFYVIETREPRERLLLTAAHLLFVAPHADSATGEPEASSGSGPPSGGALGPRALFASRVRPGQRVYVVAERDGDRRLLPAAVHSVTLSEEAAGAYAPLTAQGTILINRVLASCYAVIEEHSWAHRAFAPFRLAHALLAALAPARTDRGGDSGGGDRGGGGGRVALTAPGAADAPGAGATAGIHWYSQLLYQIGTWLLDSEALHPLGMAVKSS
UniProt Q86TM6: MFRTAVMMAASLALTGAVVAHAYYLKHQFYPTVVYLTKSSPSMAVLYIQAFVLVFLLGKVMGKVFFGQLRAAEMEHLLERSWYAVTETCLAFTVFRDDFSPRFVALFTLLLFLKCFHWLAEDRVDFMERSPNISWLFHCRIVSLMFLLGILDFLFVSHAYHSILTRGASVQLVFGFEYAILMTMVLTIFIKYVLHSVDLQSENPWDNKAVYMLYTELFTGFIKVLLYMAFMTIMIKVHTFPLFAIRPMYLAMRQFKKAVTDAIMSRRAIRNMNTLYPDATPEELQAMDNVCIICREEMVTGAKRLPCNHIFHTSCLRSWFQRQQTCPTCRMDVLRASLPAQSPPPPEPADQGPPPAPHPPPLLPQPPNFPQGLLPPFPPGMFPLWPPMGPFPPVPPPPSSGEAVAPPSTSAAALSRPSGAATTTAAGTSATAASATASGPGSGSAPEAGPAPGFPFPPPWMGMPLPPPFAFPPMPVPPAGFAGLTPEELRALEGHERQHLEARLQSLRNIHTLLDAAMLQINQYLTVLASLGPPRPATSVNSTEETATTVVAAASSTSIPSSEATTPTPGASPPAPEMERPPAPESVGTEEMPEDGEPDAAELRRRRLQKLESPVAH

T1: Myc-tagged wild type EDEM3 (human) (UniProt Q9BZQ6)
T1 sequence: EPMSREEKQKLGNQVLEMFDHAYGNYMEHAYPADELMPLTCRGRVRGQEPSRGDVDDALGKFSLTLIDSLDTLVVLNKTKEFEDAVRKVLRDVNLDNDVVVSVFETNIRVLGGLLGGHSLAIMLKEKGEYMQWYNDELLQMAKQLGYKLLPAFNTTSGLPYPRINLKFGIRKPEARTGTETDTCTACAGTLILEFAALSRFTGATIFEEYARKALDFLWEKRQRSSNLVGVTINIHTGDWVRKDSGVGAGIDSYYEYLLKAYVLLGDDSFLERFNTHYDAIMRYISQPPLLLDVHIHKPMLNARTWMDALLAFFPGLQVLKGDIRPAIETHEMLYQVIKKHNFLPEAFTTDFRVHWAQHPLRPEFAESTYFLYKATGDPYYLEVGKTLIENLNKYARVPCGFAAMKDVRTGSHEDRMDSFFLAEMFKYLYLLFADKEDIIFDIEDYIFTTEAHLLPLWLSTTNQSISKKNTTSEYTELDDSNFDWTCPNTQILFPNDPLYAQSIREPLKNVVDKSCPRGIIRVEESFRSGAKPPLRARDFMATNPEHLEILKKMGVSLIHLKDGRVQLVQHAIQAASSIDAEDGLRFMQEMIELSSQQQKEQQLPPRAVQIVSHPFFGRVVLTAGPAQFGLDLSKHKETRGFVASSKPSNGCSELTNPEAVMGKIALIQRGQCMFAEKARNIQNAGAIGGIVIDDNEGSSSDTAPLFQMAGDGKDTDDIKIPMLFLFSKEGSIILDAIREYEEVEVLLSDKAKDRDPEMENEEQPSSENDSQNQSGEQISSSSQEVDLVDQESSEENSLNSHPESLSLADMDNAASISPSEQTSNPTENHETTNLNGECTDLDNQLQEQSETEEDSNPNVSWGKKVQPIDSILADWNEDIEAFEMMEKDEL

T2: Myc-tagged wild type EDEM2 (human) (UniProt Q9BV94)
T2 sequence: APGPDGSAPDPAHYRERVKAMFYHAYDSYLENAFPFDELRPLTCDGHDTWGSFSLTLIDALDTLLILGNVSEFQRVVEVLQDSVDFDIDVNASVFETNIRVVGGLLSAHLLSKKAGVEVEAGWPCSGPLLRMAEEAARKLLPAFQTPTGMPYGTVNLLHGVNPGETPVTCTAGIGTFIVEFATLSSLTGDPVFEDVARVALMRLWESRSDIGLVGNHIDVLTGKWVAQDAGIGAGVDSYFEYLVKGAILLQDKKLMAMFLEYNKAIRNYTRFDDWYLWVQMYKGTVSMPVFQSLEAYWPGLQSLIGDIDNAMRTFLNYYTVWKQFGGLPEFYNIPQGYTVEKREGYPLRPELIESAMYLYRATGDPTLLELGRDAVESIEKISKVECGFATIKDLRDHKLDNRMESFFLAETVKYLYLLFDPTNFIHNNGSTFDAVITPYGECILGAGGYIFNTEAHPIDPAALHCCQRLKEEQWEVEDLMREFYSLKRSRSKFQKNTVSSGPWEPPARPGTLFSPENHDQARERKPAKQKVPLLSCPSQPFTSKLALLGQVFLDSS


What was measured:
[1] = target: T1, Myc-tagged wild type EDEM3 (human); assay: co-IP; 293T cells transfected with Myc-tagged EDEMs (10% of the DNA normally used); lysed in buffer with 1% Triton; immunoprecipitated with Myc antibodies; blotted for endogenous SEL1L, HRD1, Bip, calnexin and ERp57
[2] = target: T2, Myc-tagged wild type EDEM2 (human); assay: as above
[3] = target: Non-glycosylated human sonic hedgehog mutant N278A with HA tag (N278A-HA) (human) (UniProt Q15465); assay: co-IP; cells co-transfected with SHH-HA or N278A-HA and Myc-tagged EDEMs or Ret4A (one tenth of the usual DNA); lysed in buffer with 1% Triton; immunoprecipitated with HA antibodies; blotted with HA and Myc antibodies

Row | binding [1] | binding [2] | binding [3] | Molecule
1 | – | – | binds | Myc-tagged EDEM2 active site mutant D258N (protein, UniProt Q9BV94 22-578) APGPDGSAPDPAHYRERVKAMFYHAYDSYLENAFPFDELRPLTCDGHDTWGSFSLTLIDALDTLLILGNVSEFQRVVEVLQDSVDFDIDVNASVFETNIRVVGGLLSAHLLSKKAGVEVEAGWPCSGPLLRMAEEAARKLLPAFQTPTGMPYGTVNLLHGVNPGETPVTCTAGIGTFIVEFATLSSLTGDPVFEDVARVALMRLWESRSDIGLVGNHIDVLTGKWVAQDAGIGAGVNSYFEYLVKGAILLQDKKLMAMFLEYNKAIRNYTRFDDWYLWVQMYKGTVSMPVFQSLEAYWPGLQSLIGDIDNAMRTFLNYYTVWKQFGGLPEFYNIPQGYTVEKREGYPLRPELIESAMYLYRATGDPTLLELGRDAVESIEKISKVECGFATIKDLRDHKLDNRMESFFLAETVKYLYLLFDPTNFIHNNGSTFDAVITPYGECILGAGGYIFNTEAHPIDPAALHCCQRLKEEQWEVEDLMREFYSLKRSRSKFQKNTVSSGPWEPPARPGTLFSPENHDQARERKPAKQKVPLLSCPSQPFTSKLALLGQVFLDSS
2 | – | – | binds | Myc-tagged wild type EDEM2 (protein, UniProt Q9BV94 22-578) APGPDGSAPDPAHYRERVKAMFYHAYDSYLENAFPFDELRPLTCDGHDTWGSFSLTLIDALDTLLILGNVSEFQRVVEVLQDSVDFDIDVNASVFETNIRVVGGLLSAHLLSKKAGVEVEAGWPCSGPLLRMAEEAARKLLPAFQTPTGMPYGTVNLLHGVNPGETPVTCTAGIGTFIVEFATLSSLTGDPVFEDVARVALMRLWESRSDIGLVGNHIDVLTGKWVAQDAGIGAGVDSYFEYLVKGAILLQDKKLMAMFLEYNKAIRNYTRFDDWYLWVQMYKGTVSMPVFQSLEAYWPGLQSLIGDIDNAMRTFLNYYTVWKQFGGLPEFYNIPQGYTVEKREGYPLRPELIESAMYLYRATGDPTLLELGRDAVESIEKISKVECGFATIKDLRDHKLDNRMESFFLAETVKYLYLLFDPTNFIHNNGSTFDAVITPYGECILGAGGYIFNTEAHPIDPAALHCCQRLKEEQWEVEDLMREFYSLKRSRSKFQKNTVSSGPWEPPARPGTLFSPENHDQARERKPAKQKVPLLSCPSQPFTSKLALLGQVFLDSS

The next lines start with the molecule.

Row | Molecule | binding [1] | binding [2] | binding [3]
3 | HRD1 (from UniProt Q86TM6 1-617) | no binding | no binding | –
4 | Myc-tagged EDEM1 active site mutant E493Q (protein, UniProt Q92611 1-657) MQWRALVLGLVLLRLGLHGVLWLVFGLGPSMGFYQRFPLSFGFQRLRSPDGPASPTSGPVGRPGGVSGPSWLQPPGTGAAQSPRKAPRRPGPGMCGPANWGYVLGGRGRGPDEYEKRYSGAFPPQLRAQMRDLARGMFVFGYDNYMAHAFPQDELNPIHCRGRGPDRGDPSNLNINDVLGNYSLTLVDALDTLAIMGNSSEFQKAVKLVINTVSFDKDSTVQVFEATIRVLGSLLSAHRIITDSKQPFGDMTIKDYDNELLYMAHDLAVRLLPAFENTKTGIPYPRVNLKTGVPPDTNNETCTAGAGSLLVEFGILSRLLGDSTFEWVARRAVKALWNLRSNDTGLLGNVVNIQTGHWVGKQSGLGAGLDSFYEYLLKSYILFGEKEDLEMFNAAYQSIQNYLRRGREACNEGEGDPPLYVNVNMFSGQLMNTWIDSLQAFFPGLQVLIGDVEDAICLHAFYYAIWKRYGALPERYNWQLQAPDVLFYPLRPQLVESTYLLYQATKNPFYLHVGMDILQSLEKYTKVKCGYATLHHVIDKSTEDRMESFFLSETCKYLYLLFDEDNPVHKSGTRYMFTTEGHIVSVDEHLRELPWKEFFSEEGGQDQGGKSVHRPKPHELKVINSSSNCNRVPDERRYSLPLKSIYMRQIDQMVGLI | – | – | binds
5 | Myc-tagged wild type EDEM1 (protein, UniProt Q92611 1-657) MQWRALVLGLVLLRLGLHGVLWLVFGLGPSMGFYQRFPLSFGFQRLRSPDGPASPTSGPVGRPGGVSGPSWLQPPGTGAAQSPRKAPRRPGPGMCGPANWGYVLGGRGRGPDEYEKRYSGAFPPQLRAQMRDLARGMFVFGYDNYMAHAFPQDELNPIHCRGRGPDRGDPSNLNINDVLGNYSLTLVDALDTLAIMGNSSEFQKAVKLVINTVSFDKDSTVQVFEATIRVLGSLLSAHRIITDSKQPFGDMTIKDYDNELLYMAHDLAVRLLPAFENTKTGIPYPRVNLKTGVPPDTNNETCTAGAGSLLVEFGILSRLLGDSTFEWVARRAVKALWNLRSNDTGLLGNVVNIQTGHWVGKQSGLGAGLDSFYEYLLKSYILFGEKEDLEMFNAAYQSIQNYLRRGREACNEGEGDPPLYVNVNMFSGQLMNTWIDSLQAFFPGLQVLIGDVEDAICLHAFYYAIWKRYGALPERYNWQLQAPDVLFYPLRPELVESTYLLYQATKNPFYLHVGMDILQSLEKYTKVKCGYATLHHVIDKSTEDRMESFFLSETCKYLYLLFDEDNPVHKSGTRYMFTTEGHIVSVDEHLRELPWKEFFSEEGGQDQGGKSVHRPKPHELKVINSSSNCNRVPDERRYSLPLKSIYMRQIDQMVGLI | – | – | binds
6 | Myc-tagged EDEM3 active site mutant D293N (protein, UniProt Q9BZQ6 42-932) EPMSREEKQKLGNQVLEMFDHAYGNYMEHAYPADELMPLTCRGRVRGQEPSRGDVDDALGKFSLTLIDSLDTLVVLNKTKEFEDAVRKVLRDVNLDNDVVVSVFETNIRVLGGLLGGHSLAIMLKEKGEYMQWYNDELLQMAKQLGYKLLPAFNTTSGLPYPRINLKFGIRKPEARTGTETDTCTACAGTLILEFAALSRFTGATIFEEYARKALDFLWEKRQRSSNLVGVTINIHTGDWVRKDSGVGAGINSYYEYLLKAYVLLGDDSFLERFNTHYDAIMRYISQPPLLLDVHIHKPMLNARTWMDALLAFFPGLQVLKGDIRPAIETHEMLYQVIKKHNFLPEAFTTDFRVHWAQHPLRPEFAESTYFLYKATGDPYYLEVGKTLIENLNKYARVPCGFAAMKDVRTGSHEDRMDSFFLAEMFKYLYLLFADKEDIIFDIEDYIFTTEAHLLPLWLSTTNQSISKKNTTSEYTELDDSNFDWTCPNTQILFPNDPLYAQSIREPLKNVVDKSCPRGIIRVEESFRSGAKPPLRARDFMATNPEHLEILKKMGVSLIHLKDGRVQLVQHAIQAASSIDAEDGLRFMQEMIELSSQQQKEQQLPPRAVQIVSHPFFGRVVLTAGPAQFGLDLSKHKETRGFVASSKPSNGCSELTNPEAVMGKIALIQRGQCMFAEKARNIQNAGAIGGIVIDDNEGSSSDTAPLFQMAGDGKDTDDIKIPMLFLFSKEGSIILDAIREYEEVEVLLSDKAKDRDPEMENEEQPSSENDSQNQSGEQISSSSQEVDLVDQESSEENSLNSHPESLSLADMDNAASISPSEQTSNPTENHETTNLNGECTDLDNQLQEQSETEEDSNPNVSWGKKVQPIDSILADWNEDIEAFEMMEKDEL | – | – | binds weakly
7 | Myc-tagged wild type EDEM3 (protein, UniProt Q9BZQ6 42-932) EPMSREEKQKLGNQVLEMFDHAYGNYMEHAYPADELMPLTCRGRVRGQEPSRGDVDDALGKFSLTLIDSLDTLVVLNKTKEFEDAVRKVLRDVNLDNDVVVSVFETNIRVLGGLLGGHSLAIMLKEKGEYMQWYNDELLQMAKQLGYKLLPAFNTTSGLPYPRINLKFGIRKPEARTGTETDTCTACAGTLILEFAALSRFTGATIFEEYARKALDFLWEKRQRSSNLVGVTINIHTGDWVRKDSGVGAGIDSYYEYLLKAYVLLGDDSFLERFNTHYDAIMRYISQPPLLLDVHIHKPMLNARTWMDALLAFFPGLQVLKGDIRPAIETHEMLYQVIKKHNFLPEAFTTDFRVHWAQHPLRPEFAESTYFLYKATGDPYYLEVGKTLIENLNKYARVPCGFAAMKDVRTGSHEDRMDSFFLAEMFKYLYLLFADKEDIIFDIEDYIFTTEAHLLPLWLSTTNQSISKKNTTSEYTELDDSNFDWTCPNTQILFPNDPLYAQSIREPLKNVVDKSCPRGIIRVEESFRSGAKPPLRARDFMATNPEHLEILKKMGVSLIHLKDGRVQLVQHAIQAASSIDAEDGLRFMQEMIELSSQQQKEQQLPPRAVQIVSHPFFGRVVLTAGPAQFGLDLSKHKETRGFVASSKPSNGCSELTNPEAVMGKIALIQRGQCMFAEKARNIQNAGAIGGIVIDDNEGSSSDTAPLFQMAGDGKDTDDIKIPMLFLFSKEGSIILDAIREYEEVEVLLSDKAKDRDPEMENEEQPSSENDSQNQSGEQISSSSQEVDLVDQESSEENSLNSHPESLSLADMDNAASISPSEQTSNPTENHETTNLNGECTDLDNQLQEQSETEEDSNPNVSWGKKVQPIDSILADWNEDIEAFEMMEKDEL | – | – | binds weakly
